Measured values published in PubChem BioAssay AID686978 (National Center for Advancing Translational Sciences (NCATS), 2013).
The whole screen tested about 420,000 compounds, of which about 64,000 (15%) were called active. Inconclusive results, whose numbers are uncertain, are shown with a selection of clear calls. Calls come from the whole dose curve; as a rule, active = well fitted inhibition curve with a large enough effect; inconclusive = small, poorly fitted or top-dose-only effect; inactive = flat fitted curve, though single readings scatter. Potencies of inconclusive entries are left out as doubtful fits.

Assay: qHTS for Inhibitors of human tyrosyl-DNA phosphodiesterase 1 (TDP1): qHTS in cells in absence of CPT; note: nearly all actives have a fitted effect of over 55% in size
Details: DT40 Tdp1-/- hTDP1 cells, no CPT, ATP luminescence, 48 h; activity change, negative = growth inhibition: at 46.2 µM (top of the series) unless noted
In short: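 Stably hTDP1-transfected Tdp1-null chicken DT40 cells were treated with library compounds minus camptothecin and grown for at least 48 hr at 37 °C, after which cellular ATP was quantified by luminescence.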
% is set by controls: 0 for no effect and ±100 for the full control effect; potency is the fitted concentration of half-maximal effect; tags give direction and shape of the fitted curve.

| Compound | Potency | activity change, negative = growth inhibition |
| --- | --- | --- |
| CCC(=O)N1CCN(c2nc3ccccc3s2)CC1 | inconclusive [inhibitor, single point] |  |
| O=C(O)C(F)=C(c1ccccc1)c1ccccc1 | inactive |  |
| O=C(Cn1cc(S(=O)(=O)Cc2ccccc2Cl)c2ccccc21)NCCc1ccccc1 | inconclusive [inhibitor, single point] |  |
| CCCS(=O)(=O)c1nc(S(=O)(=O)c2ccc(C)cc2)c(N2CCC3(CC2)OCCO3)s1 | inactive |  |
| NC(=O)N/N=C/c1c(O)ccc2oc3c(c12)CCCC3 | inconclusive [inhibitor, single point] |  |
| CC(C)c1ccc(OCC(O)CN2CCCC2)cc1 (configuration not stated) | inactive |  |
| O=C(NC(=S)NNC(=O)c1ccco1)c1ccc(Br)cc1 | inconclusive [inhibitor, single point] |  |
| C=C(C)C1Cc2c(C)nn(-c3cccc4ccccc34)c2C1 (configuration not stated) | inconclusive [inhibitor, single point] |  |
| CN(C)CC1CCCCC1OC(=O)c1ccc(Cl)cc1 (configuration not stated) | inconclusive [inhibitor, full curve, poor fit] |  |
| CCOc1ccc(CC(=O)NCc2ccc3c(c2)CCN3C(=O)c2ccccc2)cc1OCC | inconclusive [inhibitor, single point] |  |
| COc1ccc(NC(=O)CC2C(=O)N(c3cccc(OC)c3)C(=O)N2CCC2=CCCCC2)cc1 (configuration not stated) | active: 23.1 µM |  |
| O=C(N/N=C/c1ccccn1)c1cc(-c2ccc(Cl)s2)[nH]n1 | active: 16.4 µM |  |
| CC([NH2+][O-])C(C)(C)NO (configuration not stated) | inactive |  |
| COc1cc2ccccc2cc1C(=O)N(CCN(C)C)c1nc2c(C)cccc2s1 | active: 23.1 µM |  |
| CCc1ccc(OC(C)C(=O)Nc2ccccc2C(=O)N2CCOCC2)cc1 (configuration not stated) | inconclusive [inhibitor, single point] |  |
| CCn1nnc2cc(C(=O)Nc3cc(C)ccc3C)ccc21 | inconclusive [inhibitor, single point] |  |
| CCN(CC)CCNc1ncnc2c1sc1nc(N3CCCC3)c3c(c12)CC(C)(C)OC3 | inconclusive [inhibitor, single point] |  |
| Cc1ccc(-c2noc(CN(C(=O)C34CC5CC(CC(C5)C3)C4)C(C)C)n2)cc1 | inconclusive [inhibitor, single point] |  |
| Cc1ccc(-c2cc3ncc4c(n3n2)-c2cc(Cl)ccc2OC4)cc1 | inactive |  |
| Cc1ccc(S(=O)(=O)N(C)c2ccccc2C(=O)Nc2ccc(F)cc2F)cc1 | inconclusive [inhibitor, partial curve, poor fit] |  |
| CC(C)OCC(O)CN1CCNCC1 (configuration not stated) | inactive |  |
| CCN(CC(=O)Nc1ccc(NC(C)=O)cc1)C(=O)c1cccc(S(=O)(=O)N2c3ccccc3CC2C)c1 (configuration not stated) | inactive |  |
| CCN1CCN(C(=O)C2=CC(c3ccc(C)cc3)=NS(=O)(=O)N2C)CC1 | inactive |  |
| O=C(N/N=C/c1cccc([N+](=O)[O-])c1)C1CC(=O)N(c2ccc(Cl)cc2)C1 (configuration not stated) | inconclusive [inhibitor, single point] |  |

| Compound | Potency | activity change, negative = growth inhibition |
| --- | --- | --- |
| CCN(CC)S(=O)(=O)c1cccc(NC(=O)c2ccc(S(=O)(=O)N3CCCC3)cc2)c1 | inconclusive [inhibitor, single point] |  |
| CCOc1ccc(NC(=O)[C@@H]2CCCN2C(=O)c2cccs2)cc1S(=O)(=O)N1CCCCC1 | inactive |  |
| COc1ccc(C=O)cc1OS(=O)(=O)c1ccccc1[N+](=O)[O-] | inconclusive [inhibitor, single point] |  |
| CCC(C)(C)NC(=O)CCn1c(-c2ccccc2)cc(C(C)=O)c1C | inconclusive [inhibitor, single point] |  |
| C/C=C/c1cc(CN2CCN(c3ccccc3)CC2)c(O)c(OC)c1 | inactive |  |
| Cn1ccc(C(=O)N/N=C/c2c[nH]c3ccccc23)n1 |  | inconclusive: -16.7% [inhibitor] |
| C=CCN=C1CC(C)(C)CC(=O)/C1=C(\O)CCCN1C(=O)c2ccccc2C1=O | inconclusive [inhibitor, partial curve] |  |
| NC(=O)CSc1nc2ccc(NC(=O)COc3ccccc3Cl)cc2s1 | inconclusive [inhibitor, full curve] |  |
| Cc1ccc(-c2cc(C(=O)N/N=C/c3ccccc3O)n[nH]2)o1 | active: 5.17 µM |  |
| CCCCCNC(=O)C(c1ccc(C#N)cc1)n1c(=O)c(-c2ccco2)nc2ccccc21 (configuration not stated) | inconclusive [inhibitor, single point] |  |
| Cc1cccc(-n2cnc3cc(C(=O)N4CCc5ccccc54)ccc32)c1 | inconclusive [inhibitor, partial curve] |  |
| Cc1ccc(OCC(=O)NCCNC(=O)c2cnccn2)cc1C | inactive |  |
| CN(C)CCC1CCN(c2cc(C#N)c(C#N)cc2[N+](=O)[O-])CC1 | inactive |  |
| CC(=O)c1ccc(N2CCN(C(=S)Nc3cc(C)ccc3C)CC2)cc1 | inconclusive [inhibitor, single point] |  |
| Cn1cccc1/C=N/n1c(-c2ccc(Cl)cc2Cl)n[nH]c1=S | inconclusive [inhibitor, partial curve, poor fit] |  |
| Cc1ccc(N=C(N)N=C(N)N)cc1 | inactive |  |
| Cc1ccc(S(=O)(=O)NCCn2cnc([N+](=O)[O-])n2)cc1 | inactive |  |
| COc1ccc(-c2cc(C(=O)NC3CC3)c3ccccc3n2)cc1 | inconclusive [inhibitor, partial curve, poor fit] |  |
| Cc1ccc(C)c(N2CCN(C(=O)C(CC(C)C)NS(=O)(=O)c3ccc4nc(C)sc4c3)CC2)c1 (configuration not stated) | active: 16.4 µM |  |
| CCCc1cc(C(=O)N2CCCC(Cc3cccc(Cl)c3)(C(=O)OCC)C2)n(C)n1 (configuration not stated) | active: 13 µM |  |
| COC(=O)c1ccc2nc(-c3ccc(C)cc3)c(Cc3ccc(C)cc3)n2c1 | active: 16.4 µM |  |
| COCCCNC(=S)NC1CCCCC1 |  | inconclusive: -31.9% [inhibitor] |
| O=C(CCS(=O)(=O)c1ccccc1)Nc1nc(-c2cccs2)cs1 | active: 20.6 µM |  |
